Two molecules from US20250230211A1 (NANTCELL, published 2025) can be followed below.

Common to all, as to assay: SPR, fusion protein captured by anti-human IgG Fc, analyte by OneStep injection at 40 nM and 20 nM
The target of one assay is T1, murine CTLA4 (murine, UniProt P09793 36-161, limits assumed).
T1 construct: also called Mouse CTLA4
The protocol:
(§1) Surface plasmon resonance (SPR) studies were conducted with the purified fusion proteins to assess their binding affinities to relevant targets. The SPR kinetic assay was performed by immobilizing rabbit α-human IgG Fc antibodies (Thermo) on a PCH sensor (Sartorius) as the capture molecule. All molecules of interest were then captured on the sensor surface by α-IgG1-Fc and Fc domain interaction. Binding kinetics against IL-2Rβ, human CTLA4, and murine CTLA4 were determined by OneStep injection at 40 nM and 20 nM of each analyte. […] The αCTLA4-scFv has higher affinity to CTLA4 than when the binding domain is in IgG form.

In a further assay the target is T2, IL-2Rβ (UniProt P14784 27-240, limits assumed).
T2 construct: also called IL2RB
T2 sequence (looked up): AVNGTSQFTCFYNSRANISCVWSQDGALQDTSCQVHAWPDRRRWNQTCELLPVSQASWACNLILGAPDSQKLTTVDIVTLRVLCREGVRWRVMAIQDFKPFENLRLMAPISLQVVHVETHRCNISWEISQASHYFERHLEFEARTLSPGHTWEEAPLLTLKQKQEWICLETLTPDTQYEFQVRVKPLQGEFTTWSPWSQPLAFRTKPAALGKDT
The procedure: as §1

The target in the next assay is T3, human CTLA4 (human, UniProt P16410 36-161).
T3 sequence (looked up): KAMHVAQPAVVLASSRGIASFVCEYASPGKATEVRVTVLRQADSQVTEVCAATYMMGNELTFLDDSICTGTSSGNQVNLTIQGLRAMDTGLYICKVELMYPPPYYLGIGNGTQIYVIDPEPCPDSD
The procedure: as §1

B1: IL-15/αCTLA4 (N-844-4) (other)
heavy: ITCPPPMSVEHADIWVKSYSLYSRERYICNSGFKRKAGTSSLTECVLNKATNVAHWTTPSLKCIRGGGGSGGGGSGGGGSEVQLVESGGGLVQPGGSLRLSCAASGFTFTSYSMHWVRQAPGKGLEWVSGISGSGRSTSYADSVKGRFTISRDNSKNTLYLQMNSLRAEDTAVYYCARDLMAFNLVRAGGFDVWGQGTLVTVSS[sequence of human IgG1 constant region omitted]
light: DIQMTQSPSSLSASVGDRVTITCQASQDISNYLNWYQQKPGKAPKLLIYDASNLETGVPSRFSGSGSGTDFTFTISSLQPEDIATYYCQQGDAWPWTFGQGTKVEIKRTVAAPSVFIFPPSDEQLKSGTASVVCLLNNFYPREAKVQWKVDNALQSGNSQESVTEQDSKDSTYSLSSTLTLSKADYEKHKVYACEVTHQGLSSPVTKSFNRGEC
chain: [sequence of about 120 residues omitted]
As to B1, the results for the Kd with murine CTLA4, in the assay with IL-2Rβ and with human CTLA4 were 2 to 3.4 nM, 1.7 nM and 1.2 to 1.3 nM, respectively.

B2: αCTLA4/IL-15 (N-844-5) (other)
heavy: EVQLVESGGGLVQPGGSLRLSCAASGFTFTSYSMHWVRQAPGKGLEWVSGISGSGRSTSYADSVKGRFTISRDNSKNTLYLQMNSLRAEDTAVYYCARDLMAFNLVRAGGFDVWGQGTLVTVSS[sequence of human IgG1 constant region omitted]GGGGSGGGGSGGGGSITCPPPMSVEHADIWVKSYSLYSRERYICNSGFKRKAGTSSLTECVLNKATNVAHWTTPSLKCIR
light: B1 light
chain: [sequence of about 120 residues omitted]
For B2, the Kd was 2.1 to 2.6 nM in the assay with murine CTLA4, 1.9 nM in the assay with IL-2Rβ and 1.2 to 1.4 nM in the assay with human CTLA4.
